Laboratory results taken from publication PMC4336329 (PLoS ONE, 2015).
Out of some 310,000 compounds screened, about 2,200 (0.71%) showed an effect of 50% or more. Effects have a minus sign here. The list shows a part of the results.

target: human ether-à-go-go-related gene (hERG) potassium channel (human, UniProt Q12809); test: primary screen, population patch clamp on CHO cells stably expressing hERG
Sequence (Q12809 whole entry, looked up): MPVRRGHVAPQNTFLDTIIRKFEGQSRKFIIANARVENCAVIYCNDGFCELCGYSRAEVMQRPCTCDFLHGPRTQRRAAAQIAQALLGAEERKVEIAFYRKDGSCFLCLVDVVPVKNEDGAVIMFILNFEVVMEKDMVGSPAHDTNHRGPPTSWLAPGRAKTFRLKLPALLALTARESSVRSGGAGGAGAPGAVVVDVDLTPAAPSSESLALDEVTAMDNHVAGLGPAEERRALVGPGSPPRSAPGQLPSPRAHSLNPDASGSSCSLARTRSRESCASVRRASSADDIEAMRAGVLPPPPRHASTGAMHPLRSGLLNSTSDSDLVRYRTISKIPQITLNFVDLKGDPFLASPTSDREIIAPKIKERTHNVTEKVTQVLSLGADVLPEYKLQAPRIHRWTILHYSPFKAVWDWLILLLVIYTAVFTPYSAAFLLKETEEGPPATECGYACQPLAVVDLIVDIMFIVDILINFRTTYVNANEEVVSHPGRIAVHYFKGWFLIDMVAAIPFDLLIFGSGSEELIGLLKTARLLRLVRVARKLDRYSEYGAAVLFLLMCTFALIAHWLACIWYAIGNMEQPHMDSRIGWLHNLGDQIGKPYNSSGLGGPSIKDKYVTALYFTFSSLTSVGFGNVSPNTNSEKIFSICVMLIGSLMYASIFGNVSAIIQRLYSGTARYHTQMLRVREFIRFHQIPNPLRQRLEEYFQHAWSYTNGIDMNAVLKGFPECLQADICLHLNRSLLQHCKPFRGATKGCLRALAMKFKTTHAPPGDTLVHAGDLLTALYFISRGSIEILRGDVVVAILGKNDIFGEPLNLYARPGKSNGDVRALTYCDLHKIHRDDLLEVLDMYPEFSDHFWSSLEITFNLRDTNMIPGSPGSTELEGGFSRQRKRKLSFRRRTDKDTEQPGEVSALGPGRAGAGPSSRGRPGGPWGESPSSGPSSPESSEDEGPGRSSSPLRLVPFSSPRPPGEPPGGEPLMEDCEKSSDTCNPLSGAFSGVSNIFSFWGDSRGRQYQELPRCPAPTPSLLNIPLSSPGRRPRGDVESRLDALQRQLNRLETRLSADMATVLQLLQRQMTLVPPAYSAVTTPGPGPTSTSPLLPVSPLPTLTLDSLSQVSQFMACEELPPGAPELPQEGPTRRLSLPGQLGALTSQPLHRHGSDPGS

| Structure (SMILES) | hERG current change (%, negative = inhibition) at 1uM |
| --- | --- |
| CC(=O)Oc1ccc(C(=O)Cc2ccc3ccccc3n2)c(O)c1C | 17.5% |
| CCCC(=O)NC(NC(=S)Nc1ccc(N=Nc2ccccc2)cc1)C(Cl)(Cl)Cl (stereo not drawn) | 15.4% |
| Nc1nc2n(n1)C(c1ccc(Cl)cc1)CC(c1ccc(F)cc1)N2 (stereo not drawn) | 0.762% |
| CN(C)c1ccc(NC(=O)CN2CCC(C(=O)c3ccc(F)cc3)CC2)cc1 | -4.93% |
| N#Cc1cnn(-c2ccccc2)c1N | 14.1% |
| COc1ccc(C2C=C(c3ccc(Br)s3)Nc3ncnn32)cc1OC (stereo not drawn) | -2.99% |
| O=C1Nc2ccccc2Sc2ccccc21 | 9.65% |
| CC(C)(C)NC(=O)CSc1nnc(-c2ccncc2)n1Cc1ccccc1 | 6.76% |
| CC(NC(=O)C(=O)N/N=C/c1ccc(Cl)cc1)c1ccccc1 (stereo not drawn) | -18.6% |
| Cc1cc(Cl)ccc1NC(=O)CCC(=O)N/N=C/c1cc([N+](=O)[O-])ccc1O | 9.07% |
| O=C(CC1(C(F)(F)F)OCCO1)Nc1ccc2c(c1)OCO2 | 8.25% |
| COc1ccc(NS(=O)(=O)c2cccc(C(=O)N3CCCC3)c2)cc1 | 8.8% |
| COc1ccc(C(=O)Nc2cc3c(cc2OC)CCCC3)cc1Br | 11.1% |
| CCN(CC)CCCn1c2c(c(SCC(=O)Nc3cccc4ccccc34)nc1=O)CCC2 | -7.84% |
| C/C(=N\Nc1nccnc1Cl)c1c(F)c(F)c(F)c(F)c1F | 0.297% |
| CC(C)CC(NC(=O)C1CCCCC1)C(=O)N1CCN(c2ccccn2)CC1 (stereo not drawn) | 5.87% |
| Cc1ccc(-n2c(N)c(C(=O)N3CCOCC3)sc2=S)c(C)c1 | 7.12% |
| COc1ccc(-c2cc(=O)[nH]c(NCc3ccccc3)n2)cc1 | 4.82% |
| Cc1ccc(NS(=O)(=O)c2cccc(C(=O)OCC(=O)NCc3ccco3)c2)cc1 | -3.61% |
| c1ccc2c(NC3=NCCCCS3)cccc2c1 | 0.599% |
| CC(C)(C)C(=O)[C@@H]1[C@@H]2C(=O)N(C3CCCCC3)C(=O)[C@@H]2[C@H]2c3ccccc3C=CN12 | -5.74% |
| Cc1ccc2c(cnn2C(=O)CCC(=O)NC2CCCCC2)c1 | 10.3% |

| Structure (SMILES) | hERG current change (%, negative = inhibition) at 1uM |
| --- | --- |
| COc1ccc(N2CCN(C(=S)Nc3cc(C)cc(C)c3)CC2)cc1 | 6.78% |
| CCNC(=O)NC(=O)C(C)Sc1ncc(C(F)(F)F)cc1Cl (stereo not drawn) | 12.4% |
| CCOc1cc(C=O)ccc1OCCSc1ccc(C)cc1 | -3.31% |
| COc1ccc(OC)c(NS(=O)(=O)c2cccs2)c1 | -2.39% |
| Cc1cc(NC(=O)CSc2nnc(COc3ccccc3)n2Cc2ccco2)no1 | -0.27% |
| O=C(CN1C(=O)c2ccccc2C1=O)NCC1CCCO1 (stereo not drawn) | 1.38% |
| COC(=O)c1sc(C(F)(F)F)c(-c2ccccc2)c1S(=O)(=O)N1CCCC1 | 7.99% |
| CC(C)c1ccc(NC(=S)Nc2ccc3cn[nH]c3c2)cc1 | 7.64% |
| Cc1cc(NC(=O)c2ccc([N+](=O)[O-])cc2Cl)ccc1NC(=O)c1ccco1 | 8.64% |
| CC(=O)c1nn(-c2ccc(C(F)(F)F)cc2)c(=O)[nH]c1=O | 21.2% |
| CCC(C)NS(=O)(=O)c1ccc(S(=O)(=O)N2CC=C(c3ccc(F)cc3)CC2)cc1 (stereo not drawn) | 11% |
| COc1ccc(C(=O)Nc2cc(OC)c(Cl)cc2Cl)cc1 | 12.1% |
| CC(C)OCCCN1C(=O)c2ccccc2C1C(=O)NC1CCCCC1 (stereo not drawn) | 4.86% |
| O=S(=O)(NCc1ccc(Cl)cc1Cl)c1ccc(N2CCOCC2)nc1 | -8.65% |
| Cc1ccc(C(=O)C2=C(O)C(=O)N(Cc3cccnc3)C2c2ccc(N(C)C)cc2)o1 (stereo not drawn) | 7.88% |
| CCCOc1ccc(C2=CSC3=NCCN23)cc1.Cl | -0.939% |
| CCN(CC(=O)Nc1c(F)cccc1F)C(=O)c1ccc2c(c1)S(=O)(=O)N=C1CCCCCN12 | 15.2% |
| CN1CCN(C(=O)/C(=C/c2ccc(F)cc2)c2ccsc2)CC1.Cl | -52.8% |
| CCOC(=O)CSc1nc(C)c(CC)c(C)c1C(N)=O | 11.8% |
| O=C(NNc1ncnc2c1cnn2-c1ccc(F)cc1)c1cccs1 | 5.51% |
| COc1ccc(-c2nc(CS(=O)CC(=O)NCc3ccc(C)cc3)c(C)o2)cc1OC (stereo not drawn) | -7.07% |
| CC(C)CC(=O)N1CCN(Cc2ccccc2Cl)CC1 | 17.5% |

| Structure (SMILES) | hERG current change (%, negative = inhibition) at 1uM |
| --- | --- |
| CC(C)C(NS(=O)(=O)c1ccc2c3c(cccc13)C(=O)N2)C(=O)O (stereo not drawn) | 10.2% |
| COCCC1CCCCN1C(=O)c1ccc2nc(Cc3ccccc3F)oc2c1 (stereo not drawn) | 18.4% |
| COC(=O)c1c(C)c[nH]c1C | 10.9% |
| CC(=O)Nc1ccc(OCCC[n+]2cccc(C(=O)[O-])c2)cc1 | 12.6% |
| CCOC(=O)c1sc(NC(=O)c2cc(-c3cccc(O)c3)on2)c(C(=O)OCC)c1C | 14.9% |
| COc1ccc(C(=O)Nc2ccc(-c3ccc(NC(=O)c4ccc(OC)cc4)c(OC)c3)cc2OC)cc1 | 15.7% |
| O=C(Nc1nc(-c2ccccc2)cs1)c1cccs1 | -0.447% |
| CC(C)NCCCCOc1cccc(Br)c1.O=C(O)C(=O)O | -2.31% |
| CCOc1ccc(NS(=O)(=O)c2cc(C(=O)NCCCN3CCOCC3)ccc2C)cc1 | 11.1% |
| COc1ccc(C(=O)CSc2nnc(-c3cc(C)cc(C)c3)o2)cc1 | 12.6% |
| Cc1ccc([N+](=O)[O-])cc1-c1ccc(/C=N/NC(=O)c2cc3c(ccc4ccccc43)o2)o1 | 19.7% |
| Cc1ccc2c(c1)N(N=O)CCC2 | 0.848% |
| O=C(C1CCCN(S(=O)(=O)c2cccc3nsnc23)C1)N1CCN(c2ccccn2)CC1 (stereo not drawn) | 9.49% |
| CCCOc1ccc(-c2c(C(=O)N/N=C/c3ccccc3OCC)nnn2-c2nonc2N)cc1 | 20.8% |
| N#Cc1ccc(CSc2ncnc3c2cnn3Cc2ccccc2)cc1 | 11.5% |
| O=C1c2cccc3cccc(c23)C(=O)N1CC1CCCO1 (stereo not drawn) | 15.2% |
| COc1cc(OC)cc(-c2c(-c3ccc(F)cc3)c3cc(-c4cnc(OC)nc4)ccc3n2C)c1 | 14.7% |
| COc1ccc(/C=C2\SC(=S)N(CCCCCC(=O)Nc3cc(C)on3)C2=O)cc1OC | 28.2% |
| O=C(NC(=S)Nc1ccc(-c2nc3ncccc3o2)cc1)c1ccccc1F | 10.5% |
| CN(C)CCN(C(=O)CN1C(=O)c2ccccc2C1=O)c1nc2cc3c(cc2s1)OCCO3.Cl | -10.2% |
| COC(=O)c1sc(NC(=O)COc2ccccc2C)nc1C | -4.42% |
| CC1=C(C(=O)Nc2ccccc2)C(c2ccc(Cl)cc2)n2c(s/c(=C/c3cccc(OCC(=O)O)c3)c2=O)=N1 (stereo not drawn) | 10.5% |

| Structure (SMILES) | hERG current change (%, negative = inhibition) at 1uM |
| --- | --- |
| Cn1c(N)c(C(=O)COC(=O)COc2ccccc2C#N)c(=O)n(C)c1=O | 4.43% |
| Cn1cc(CN(CCO)Cc2cccs2)c(-c2ccccc2F)n1 | 3.19% |
| Cc1ccccc1-c1nc(CN2CCC(C(=O)N3CCN(c4ccccn4)CC3)CC2)c(C)o1 | -14.6% |
| CS(=O)(=O)N1CCN(c2ccccc2NC(=O)c2ccc([N+](=O)[O-])o2)CC1 | 14.6% |
| Cc1ccc(-n2c(SCC(=O)NNC(=S)Nc3ccccc3)nc3ccccc3c2=O)cc1 | 10.8% |
| COc1ccc(OC)c(-c2oc3ccccc3c(=O)c2O)c1 | 3.89% |
| COc1ccccc1N1CCN(C(c2cccs2)C(C)NC(=O)c2cccs2)CC1 (stereo not drawn) | 6.99% |
| COC(=O)c1cc2cc(OC)ccc2n1C | 6.28% |
| CC(C)CN1C(=O)c2ccc(C(=O)Nc3c[nH]c(=O)[nH]c3=O)cc2C1=O | 14.9% |
| CCOC(=O)C1=C(C)N(CCO)C(=O)NC1c1cccc(O)c1 (stereo not drawn) | 15.3% |
| Cc1cccc(C)c1OCC(=O)Nc1cccc(C(=O)O)c1 | 11.6% |
| CCOc1ccc(NC(=O)Nc2ccc3c(c2)N(C)C(=O)CS3)cc1 | -2% |
| CCOc1ccc(NCc2nnc(SCc3ccccc3Cl)n2-c2ccccc2)cc1 | 6.38% |
| CN(CC(=O)NCc1ccncc1)S(=O)(=O)c1ccc(F)cc1 | 5.71% |
| Cc1occc1-c1nnc(SCC(=O)NCc2ccco2)n1CC(C)C | 11% |
| COc1ccc(S(=O)(=O)N2CCCN(CC(=O)Nc3ccc4c(c3)OCO4)CC2)cc1 | -15.1% |
| Cc1ccc(C(=O)Nc2cccc(S(=O)(=O)N3CCCCC3)c2)cc1[N+](=O)[O-] | 2.01% |
| CC(=O)c1sc(N/N=C/c2ccc(C(C)C)cc2)nc1C | 15.4% |
| Cc1nn(-c2ccccc2)c(C)c1C(=O)Nc1nnc(-c2ccco2)o1 | -5% |
| CC(=O)c1c(Cl)nc2ccc(Br)cc2c1-c1ccccc1 | 21.9% |
| COc1ccc2oc(=O)c(NC(=O)C3CCCCC3)cc2c1 | 5.32% |
